According to PubChem BioAssay AID686979 (National Center for Advancing Translational Sciences (NCATS), 2013):
The campaign covered roughly 420,000 compounds. About 50,000 (12%) were called active. The inconclusive results got no clear call from the source; some entries with a clear call stand among them for comparison. Calls come from the whole dose curve; as a rule, active = well fitted inhibition curve with a large enough effect; inconclusive = small, poorly fitted or top-dose-only effect; inactive = flat fitted curve, though single readings scatter. No potency is given beside an inconclusive call; the fits are too rough.

Test: qHTS for Inhibitors of human tyrosyl-DNA phosphodiesterase 1 (TDP1): qHTS in cells in presence of CPT; note: nearly all actives have a fitted effect of over 55% in size
Conditions: chicken DT40 Tdp1-/-;hTDP1 cells + 20 nM CPT, ATP luminescence, 48 h; activity change, negative = growth inhibition: at 46.2 µM (top of the series) unless noted
Summary of the method: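 Cell growth measured by CellTiter-Glo luminescence after a minimum 48 h, 37 C compound exposure with 20 nM CPT in Tdp1-knockout DT40 cells stably expressing hTDP1, seeded 400/well; qHTS titration format.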
% is set by controls: 0 for no effect and ±100 for the full control effect; potency is the fitted concentration of half-maximal effect; tags give direction and shape of the fitted curve.

SMILES | activity change, negative = growth inhibition | Potency
COc1cccc(CC(=O)Nc2ccc(F)c(S(=O)(=O)N3CCOCC3)c2)c1 | inactive: -15.5% | –
CC1CN(S(=O)(=O)c2cccc(C(=O)N=c3sccn3C)c2)CC(C)O1 (stereo unspecified) | – | active: 18.4 µM
CCOC(=O)c1c(CSc2ccccc2)n(C)c2cc(Br)c(OC)c(O)c12 | – | inconclusive [inhibitor, single point]
CC(=O)c1cccc(NC(=O)COC(=O)c2ccc3c(c2)OCO3)c1 | inactive: -1.09% | –
N=c1n(CCO)c2ccccc2n1Cc1ccccc1F | – | inconclusive [inhibitor, single point]
CCOCc1cn(CC(=O)c2ccc([N+](=O)[O-])cc2)c(C)nc1=N | – | active: 23.1 µM
COc1ccc2nc(C)c3c(c2c1)OC(C(C)(Cl)Br)C3 (stereo unspecified) | – | inconclusive [inhibitor, partial curve]
O=C(CCSCCC(=O)NCc1ccccc1)NCc1ccccc1 | inactive: -3.75% | –
COc1ccc(CCNC(=O)Nc2cccc([N+](=O)[O-])c2)cc1 | – | inconclusive [inhibitor, single point]
COc1ccc(C(=O)c2nccc3cc(OC)c(OC)cc23)cc1OC | – | inconclusive [inhibitor, single point]
Brc1ccc(-c2ccc(/C=N/Nc3nc(N4CCOCC4)nc(N4CCOCC4)n3)o2)cc1 | – | inconclusive [inhibitor, single point]
COc1ccc(-c2nnn(CC(=O)N3CCN(c4ccc(F)cc4)CC3)n2)cc1 | inactive: -5.19% | –
Cc1nnc(N2C(=O)C(O)=C(C(=O)c3ccco3)C2c2ccc(C(C)C)cc2)s1 (stereo unspecified) | inactive: -5.72% | –
Cc1ccc(S(=O)(=O)NCC(=O)OCC(=O)NCc2ccc(F)cc2)cc1 | inactive: -5.49% | –
COc1ccc(CCNC(=O)c2cc(=O)c3cc(C)cc(C)c3o2)cc1OC | – | active: 20.6 µM
CS(=O)(=O)N(CC(=O)N/N=C/c1ccccn1)c1ccc(Oc2ccccc2)cc1 | – | inconclusive [inhibitor, single point]
COc1ccccc1OCC(=O)N/N=C/c1cccc2cccnc12 | – | inconclusive [inhibitor, single point]
COCCSc1ccccc1C(=O)NCC1CCCO1 (stereo unspecified) | – | inconclusive [inhibitor, single point]
Cc1ccc(S(=O)(=O)N/N=C/c2c(F)cccc2Cl)cc1 | – | active: 16.4 µM
O=c1ccc(-c2nc3ccccc3n2Cc2ccccc2Cl)c[nH]1 | inactive: -16.3% | –
COc1ccc(NC(=O)c2c(-c3c(Cl)cccc3Cl)noc2C)cn1 | – | inconclusive [inhibitor, partial curve, poor fit]
O=C(c1ccc(Cl)cc1)c1cc([N+](=O)[O-])ccc1N1CCOCC1 | – | active: 0.731 µM
Cc1ccc(C)c(NC(=O)C(Sc2nc3ccccc3c(=O)n2CC(C)C)c2ccccc2)c1 (stereo unspecified) | – | active: 4.11 µM
Cc1cc(C(=O)N/N=C/C=C/c2ccccc2)n[nH]1 | inactive: -4.68% | –

SMILES | activity change, negative = growth inhibition | Potency
CCC(Sc1nc2ccccc2c2nc(CCn3c(C)nc4ccccc43)nn12)C(=O)Nc1ccc(F)cc1 (stereo unspecified) | – | inconclusive [inhibitor, single point]
O=C(Nc1sc2c(c1C(=O)O)CCCCC2)c1ccccc1 | – | inconclusive [inhibitor, single point]
CC(C)CN(C(=O)c1ccc2c(c1)OCCO2)c1c(N)n(Cc2ccccc2)c(=O)[nH]c1=O | inactive: -17.7% | –
Cc1ccc(-c2cc(C(=O)OCC(=O)c3ccccc3)c3cccc(Cl)c3n2)cc1 | – | inconclusive [inhibitor, partial curve, poor fit]
COc1cc(OC)cc(C(=O)N(CCCN2C(=O)c3cccc4cccc(c34)C2=O)c2cccc(OC)c2)c1 | – | inconclusive [inhibitor, single point]
Cc1noc(C)c1S(=O)(=O)Nc1ccc(C(=O)NC2CCCCC2)cc1 | inactive: -3.44% | –
COc1ccc(C(NC(=O)C2CCN(C/C=C/c3ccc(OC(C)=O)c(OC)c3)CC2)c2ccccn2)cc1 (stereo unspecified) | – | inconclusive [inhibitor, single point]
COc1ccc(Br)c(C(=O)Nc2cc3c(cc2N2CCCC2)n(C)c(=O)c(=O)n3C)c1 | – | active: 16.4 µM
O=C(Cc1ccc(Cl)cc1)NC1CCCN(Cc2ccccc2F)C1 (stereo unspecified) | inactive: -15.8% | –
O=C(CNc1cc([N+](=O)[O-])ccc1NCCO)Nc1cccc(S(=O)(=O)N2CCCCC2)c1 | – | inconclusive [inhibitor, partial curve]
CC(Sc1nc2ccccc2c(=O)n1CC1CCCO1)C(=O)NC(C)c1ccccc1 (stereo unspecified) | – | inconclusive [inhibitor, single point]
C[C@]12C(=O)N(c3ccc(Br)cc3)C(=O)N1[C@@H]1c3ccccc3OC[C@@H]1[C@H]2c1ccccc1 | – | inconclusive [inhibitor, single point]
COc1ccc(NC(=O)c2cc(C3CCCCN3S(=O)(=O)Cc3ccccc3)on2)c(C)c1 (stereo unspecified) | inactive: -84.2% | –
Clc1ccc(SCCOCCN2CCc3ccccc3C2)cc1 | – | inconclusive [inhibitor, single point]
COC(=O)CN1C(=O)[C@H]2[C@@H](c3ccc(C)o3)N3C(=O)CN(Cc4ccccn4)C(=O)[C@@]3(Cc3ccccc3)[C@H]2C1=O | inactive: 9.8% | –
CC(=O)C1=CCC(c2ccc(C)cc2)N(S(=O)(=O)c2ccc(Cl)cc2)C1 (stereo unspecified) | – | inconclusive [inhibitor, single point]
CC/C(=C\C(=O)c1ccncc1)Nc1ccc(Br)cc1 | – | inconclusive [inhibitor, single point]
O=C(NCc1ccc(F)cc1)c1noc2c1CCCCC2 | inactive: -13.1% | –
COc1ccc(CCNc2nc3c(-c4cccc(C(F)(F)F)c4)nnn3c3ccccc23)cc1OC | – | inconclusive [inhibitor, partial curve]
Cc1ccc(N=Cc2ccc(O)cc2O)cc1F | – | inconclusive [inhibitor, single point]
CCCCNC(=O)Cc1coc2ccc3ccccc3c12 | – | inconclusive [inhibitor, partial curve]
COc1ccc(Oc2ncc3nc(C)c(=O)n(-c4ccccc4)c3n2)cc1 | – | inconclusive [inhibitor, partial curve]
Cc1ccc(CN2CCCn3nc(C(=O)NCc4ccc(N(C)C)cc4)cc3C2=O)cc1 | – | inconclusive [inhibitor, single point]
CCN1C(=O)C(C(=O)NC(C)c2ccccc2)C2CC1(C)Oc1ccccc12 (stereo unspecified) | – | inconclusive [inhibitor, partial curve]

SMILES | activity change, negative = growth inhibition | Potency
CC(NNC(=S)N1CCCCCC1)c1ccc2ccccc2n1 (stereo unspecified) | – | active: 0.0082 µM
Cc1cc(C)n(-c2ccc(Cl)c(C(=O)Nc3ccc(-c4nnc5n4CCCCC5)cc3)n2)n1 | – | active: 2.06 µM
CNS(=O)(=O)c1cccc(C(=O)OCCCOC(=O)c2cccc(S(=O)(=O)NC)c2)c1 | – | inconclusive [inhibitor, single point]
CC1CCN(c2nc(-c3ccc(C(C)(C)C)cc3)nc3ccccc23)CC1 | – | inconclusive [inhibitor, single point]
CCOC(=O)[C@H]1[C@H]2COc3ccc(Br)cc3[C@@H]2N2C(=O)c3c(C)cc(C)cc3NC(=O)[C@@]12C | – | inconclusive [inhibitor, single point]
CCC(=O)c1ccc(OCC(=O)OCC(=O)N(CCC#N)c2ccc3c(c2)OCCO3)cc1 | inactive: -8.64% | –
Clc1ccc2c(c1)C1=C(C(c3ccncc3)O2)C(c2ccc(Br)cc2)n2ncnc2N1 (stereo unspecified) | – | inconclusive [inhibitor, single point]
O=C(CSc1nc2ccsc2c(=O)n1-c1ccc(Cl)cc1)NCc1ccc(Cl)cc1 | – | inconclusive [inhibitor, single point]
CC(=O)c1cccc(NC(=S)NC2CC2)c1 | inactive: -4% | –
O=C(CO/N=C/c1ccccc1O)N1CCc2ccccc21 | – | inconclusive [inhibitor, single point]
c1ccc2cc(OCCOCCOc3ccc4ccccc4c3)ccc2c1 | inactive: 7.01% | –
c1ccc(N2CCN(c3nc4ccccc4n4cnnc34)CC2)cc1 | – | inconclusive [inhibitor, single point]
COc1ccc(N2CCN(C(=O)CCC(=O)N3CCOc4ccc(Cl)cc43)CC2)cc1 | – | inconclusive [inhibitor, single point]
CCC1CN(CCNC(=O)c2cccnc2C)Cc2cc(OC)ccc2O1 (stereo unspecified) | inactive: 21.1% [at 9.04 µM] | –
COc1ccc(/C=C/CN2CCC(Oc3ccc(C(=O)N4CCCCC4)cc3)CC2)cc1 | – | inconclusive [inhibitor, single point]
COc1ccc(S(=O)(=O)N(C)c2ccc(C(=O)NC3CC3)cc2)cc1 | inactive: -12.3% | –
O=c1c2ccccc2nc(SCc2cn3ccsc3n2)n1-c1ccc(F)cc1 | – | inconclusive [inhibitor, single point]
Cc1ccc(NC(=S)NC(=O)c2cncc(Br)c2)cc1Cl | – | inconclusive [inhibitor, partial curve]
Nc1nnc(/C=C/c2ccccc2Cl)s1 | inactive: -15.2% | –
O=C(O)CCCC(=O)Nc1ccc(N2CCCC2)cc1 | inactive: -10.9% | –
CC(C)CNC(=O)Nc1cc(C(=O)NCc2ccc(C(C)C)cc2)ccc1N1CCCC1 | – | inconclusive [inhibitor, single point]
CCOc1ccc(NC(=O)c2cc3cc(C)ccc3n2C)cc1 | inactive: -4.36% | –
COc1ccc(-c2cnn(-c3ccccc3)c2N)cc1OC | inactive: 1.62% | –
